Assay results taken from patent US12414955B2 (priority 2020, dated 2025).

The molecules below were run on SARS CoV-2 (assay: SARS CoV-2 cytopathic effect (CPE) assay in Vero E6 host cells). Details: Vero C1008, 72 hours, 10-point dose response, high concentration 15 μM, read-out: IC50 for inhibition of SARS CoV-2 mediated cell killing.
Format: cell-based, USA_WA1/2020 SARS CoV-2
C[C@@H]1COCCN1c1cc(N2CCCC[C@@H]2C(F)(F)F)[nH]c(=O)c1 [Compound 1] gave an IC50 of 0.35 µM.
Work on C[C@@H]1COCCN1c1cc(N2CCCC[C@@H]2c2ccccc2)[nH]c(=O)c1 [Compound 2] yielded an IC50 of 4.37 µM.
With C[C@@H]1COCCN1c1cc(N2CCC[C@@H]2C(F)(F)F)[nH]c(=O)c1 [Compound 3] the IC50 was 2.01 µM.
C[C@@H]1COCCN1c1cc(N2CCOC[C@H]2C(F)(F)F)[nH]c(=O)c1 [Compound 4] was tested, and the IC50 was 1.4 µM.
C[C@@H]1COCCN1c1cc(N2CCOCC23CCC3)[nH]c(=O)c1 [Compound 5] showed an IC50 of over 10 µM.
